From PubChem BioAssay AID1794842 (National Center for Advancing Translational Sciences (NCATS), 2023)
In all, about 2,800 compounds went through this assay and fewer than 10 were called active. The call rests on the fitted dose curve; in most records, active means well fitted curve in the direction sought with a large enough effect; inconclusive means small, poorly fitted or top-dose-only effect, or another doubt; inactive means no such curve, though single readings can be large or run the other way. The list shows a part of the results.

What follows are molecules tested against Metallo-beta-lactamase type 2 (Klebsiella pneumoniae) (UniProt C7C422) (assay: qHTS to identify inhibitors of the New Delhi Metallo-beta-lactamase (NDM): Meropenem screen against the machine-based learning selections.). Conditions: Purified NDM-1, meropenem hydrolysis, absorbance 300 nm; at 38.4 µM (top of the series) unless noted.
Text: Assay Submitter (PI): James Inglese Ph.D., Patricia Dranchak Ph.D., Mahesh Aitha Ph.D. Assay Development and Screening Technology Laboratory (ADST) National Center for Advancing Translational Sciences (NCATS), Rockville, MD National Institute of Health (NIH), Bethesda, Maryland The metallo-beta-lactamases (MBL) are a main antibiotic resistance mechanism evolved by bacteria. There is an urgent clinical need for MBL inhibitors to mitigate this growing threat. To support a machine-based learning study, qHTS has been used to experimentally test inhibitors identified by prediction tools.
PROTOCOL TABLE (as described by Inglese et al., 2007) SEQUENCE No. (e.g., 1, 2, 3, etc.); […] (e.g., enzyme, Incubation, Reagent, etc.); VALUE; DESCRIPTION Primary Screen 1; NDM-1; 4 uL of 3 nM enzyme [2 nM final] in 50 mM HEPES (pH 7.0), 1 uM […], 0.01% Tween20; Use BioRaptr to dispense into two sets of Aurora black, clear bottom high base 1536-well plates 2; Compounds; 23 nL; Use Pin Tool (Wako) to transfer DMSO control and library compounds in DMSO 3; Incubate; >30 min 4a; Reagent; 2 uL of 50 uM nitrocefin [16.7 uM final] to one set of assay plates 4b; Reagent; 2 uL of 150 uM meropenem [50 uM final] to second set of assay plates 5a; Incubate; 15 min 5b; Incubate; 30 min 6a; Detector; Absorbance at 485 nm (bandwidth = 5 nm, 25 flashes/well) on Tecan Infinity 6b; Detector; Absorbance at 300 nm (bandwidth = 5 nm, 25 flashes/well) on Tecan Infinity NOTES (numbers refer to sequence above) 1; Column 1 of each plate received assay buffer without enzyme and columns 2-48 received enzyme for a final assay concentration of 2 nM. 2; Control plate contained DMSO in columns 1, 2, 3, and 4. 3; Compound interaction with enzyme. 4; Nitrocefin and meropenem substrates were prepared in the same assay buffer as step 1 for a final assay concentration of 16.7 uM and 50 uM, respectively, and added to all wells across respective sets of assay plates. 5; Default reader settings were applied for absorbance read at 485 nm (nitrocefin) or 300 nm (meropenem), bandwidth = 5 nm, 25 flashes/well. References: Inglese J, Shamu CE, Guy RK. 2007. Reporting data from high-throughput screening of small-molecule libraries. Nat Chem Biol. doi:10.1038/nchembio0807-438 Yasgar A, Shinn P, Jadhav A, Auld D, Michael S, Zheng W, Austin CP, Inglese J, Simeonov A. 2008. Compound Management for Quantitative High-Throughput Screening. J Lab Autom 13:79 - 89. doi:10.1016/j.jala.2007.12.004
Further: % of control where 0% means no effect.

UniProt C7C422, sequence (C7C422 whole entry, looked up): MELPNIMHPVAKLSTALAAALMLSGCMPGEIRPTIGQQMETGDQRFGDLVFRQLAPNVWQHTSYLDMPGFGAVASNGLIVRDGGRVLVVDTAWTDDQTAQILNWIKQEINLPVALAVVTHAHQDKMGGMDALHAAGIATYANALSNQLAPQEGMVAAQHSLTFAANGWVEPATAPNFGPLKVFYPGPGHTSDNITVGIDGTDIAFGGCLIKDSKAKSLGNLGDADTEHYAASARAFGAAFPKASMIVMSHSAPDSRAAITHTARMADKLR

Structure (SMILES)	activity change, negative = inhibition
O=c1cc(-c2cccnc2)oc2c(-c3ccccc3O)nccc12	inactive: 17.2% [at 57.5 µM]
O=C1Nc2ccc(-c3cccs3)cc2C(=O)N2CC[C@H](NS(=O)(=O)c3ccc(Cl)cc3)C[C@@H]12	inactive: 0.0233%
O=C(NCc1ccccc1)O[C@@H]1CO[C@H]2[C@@H]1OC[C@@H]2Nc1nccc(-c2ccc3c(c2)OCO3)n1	inactive: -0.584%
O=C1Cc2c(-c3cccc(CO)c3)n[nH]c2CN1CC1CC1	inactive: 30.1% [at 57.5 µM]
NC(=O)COc1ccc(C(=O)N[C@@H]2CN(C(=O)NC3CCCCC3)CCC[C@H]2O)cc1	inactive: 0.417% [at 57.5 µM]
N#Cc1cccc(C2CCN(C(=O)C3CCN(C(=O)C4CC4)CC3)CC2)c1	inactive: 1.93%
Cc1cccc(Cl)c1NC(=O)N1CCC2(CC1)C(C(=O)O)CC(=O)N2C (centres undefined)	inactive: 13.3%
CC(C)(CNc1ccc(-c2nc(C3CC3)no2)cn1)N1CCOCC1	inactive: 8.76%
O=C(c1cccc(-n2cnnc2)c1)N1CCCCCC1c1cccc(F)c1 (centres undefined)	inactive: -1.1%
CCc1noc(-c2cn(C3CCN(C(=O)c4ccc(C)c(C)c4)CC3)nn2)n1	inactive: -0.0517%
COc1ccccc1CN1CC(c2noc(-c3ccc(C)cc3C)n2)CC1=O (centres undefined)	inactive: -1.43%
Cc1noc([C@@H]2CN(C(=O)c3cc(C)n(Cc4ccco4)c3C)C[C@H]2C(N)=O)n1	inactive: 0.991%
CC(C)C[C@@H]1N[C@H](C(=O)NCc2cccs2)Cc2cn(CC3CC3)c3cccc1c23	inactive: 26.7% [at 57.5 µM]
CC1(C(=O)NCc2cccnc2)CCc2cnc(Nc3ccccc3)nc21 (centres undefined)	inactive: -4.41% [at 57.5 µM]
O=C(N[C@H](c1cccs1)C1CC(O)C1)c1cccc(-n2cccn2)c1 (some centres undefined)	inactive: -0.869%
Nc1ncccc1CN1CC[C@@H]2OCC(=O)N(Cc3ccc(O)cc3)[C@H]2CC1	inactive: -5.12% [at 57.5 µM]
Cc1ccc(O)c(CN2CC[C@@H](c3ccc(F)cc3)[C@H](O)C2)c1	inactive: 2.68%
Cc1ccc(CNC(=O)CN2CC3CC(C2)[C@H]2CCCC(=O)N2C3)cc1 (some centres undefined)	inactive: -1.93%
COc1cccc(S(=O)(=O)N2CCC(n3cnnc3-c3ccccc3)CC2)c1	inactive: 1.49%
CN(Cc1cc(C[C@H]2CNCC[C@H]2CC(=O)N2CCN(c3ccccc3)CC2)no1)c1ccccc1	inactive: 0.828%
Cc1nc(N(C)C)ncc1C(=O)NC(C(=O)O)c1c(C)n[nH]c1C (centres undefined)	inactive: -0.198%
COc1ccc(-c2cc(N3CCCN(C(=O)c4cnccn4)CC3)n[nH]2)cc1	inactive: -1.74%
Cc1ccc2nc(C3CCN(Cc4cccc(-c5ccsc5)c4)CC3)[nH]c(=O)c2c1	inactive: 3.46%
CSCC(=O)N[C@H]1CCN2C(=O)c3ccccc3NC(=O)[C@H]12	inactive: -0.923% [at 57.5 µM]
N#Cc1cccc(CN[C@H]2[C@H](O)[C@H](O)C[C@@H]2c2ccc(N3CCOCC3)nc2)c1	inactive: 2.45% [at 57.5 µM]

Structure (SMILES)	activity change, negative = inhibition
O=C(O)[C@H]1C[C@H](C(=O)NCc2ccccn2)CN(Cc2ccccc2)C1	inactive: 44%
CN1CCN(c2nc3c(c(=O)[nH]2)CCN(Cc2ccccc2C(F)(F)F)CC3)CC1	inactive: 39.8%
COC(=O)[C@H](NC(=O)C1=C[C@@H](NC(=O)Nc2cccc(F)c2)[C@@H](O)[C@H](O)C1)C(C)C	inactive: -0.477% [at 57.5 µM]
Cc1n[nH]c(C)c1CCC(=O)N1CCCC(c2ccc(C(=O)O)cc2)C1 (centres undefined)	inactive: 1.52%
CNC(=O)[C@@H](c1ccc(Cl)cc1)N1CCC[C@H]1C(=O)NC(C)(C)C	inactive: 50.1% [at 57.5 µM]
O=C1CC(C(=O)O)C2(CCN(c3ncc(C(=O)O)cc3Cl)CC2)N1 (centres undefined)	inactive: 7.33%
Fc1ccc(CNC[C@H]2Cn3c(-c4ccc5c(c4)OCCO5)cnc3CO2)cc1	inactive: 8.05% [at 57.5 µM]
O=C(NCCc1ccccc1)c1cnc2c(c1)N([S+](=O)([O-])c1cccnc1)CCC2	inactive: 2.85% [at 57.5 µM]
Cc1ccc(-c2cc(N3CCCN(C(=O)CCc4ccccc4)CC3)n[nH]2)cc1C	inactive: 0.387%
O=C(Cc1csc(-c2ccccc2)n1)N[C@H](c1ccccn1)C1CC(O)C1 (some centres undefined)	inactive: 7.84%
CN1C[C@@H](NC(=O)Nc2ccccc2)C[C@H]1c1nc(-c2ccc(F)cc2)no1	inactive: -3.71% [at 57.5 µM]
CC(C)(Cc1ccc(F)cc1)NC(=O)C1CCC(=O)N(Cc2ccccn2)C1 (centres undefined)	inactive: 2.22%
O=C(CCc1ccccc1)N1CCNc2cnc(Nc3cccnc3)nc2C1	inactive: 10.5% [at 57.5 µM]
CC(C)(C)c1ccc(-c2cc(C[C@H]3CNCC[C@H]3CC(=O)NCc3cccnc3)no2)cc1	inactive: 25.1%
COCCCNC(=O)N1CC(c2nc(CCOCC3CCOCC3)no2)C1	inactive: -0.818%
Cc1cccc(-c2cnc3[nH]cc(CC(N)=O)c3c2)c1	inactive: 6.74% [at 76.7 µM]
COc1ccc(CN2Cc3[nH]cnc3C[C@H]2c2nc(-c3ccc(C(F)(F)F)cc3)no2)cc1	inactive: 25.5%
COc1cc(C)c2c(c1C)C[C@H](C(C)C(=O)NCc1ccco1)CC2 (some centres undefined)	inactive: 10.3% [at 57.5 µM]
OC1(CN2CCCN(c3nc4ccccc4s3)CC2)CNCCOC1 (centres undefined)	inactive: 49.5%
CCCCc1cc(C[C@@H]2C[C@H](NC(=O)NCC)C2(C)C)no1	inactive: -2.11% [at 57.5 µM]
Fc1ccc(C2Cn3nnc(-c4nc(-c5ccc6c(c5)OCO6)no4)c3CO2)cc1 (centres undefined)	inactive: 1.39%
c1ccc(CN2CCNc3cc(Nc4ccc(N5CCOCC5)cc4)ncc3C2)cc1	inactive: 0.572% [at 57.5 µM]
O=C1CCC(CNC(=O)c2nc(-c3ccccc3)cc3[nH]ccc23)N1 (centres undefined)	inactive: 8.63% [at 57.5 µM]
CC(=O)N1CCC(N2CC[C@H](c3nc4ncccc4[nH]3)C2)CC1	inactive: 2.9% [at 57.5 µM]
